PubChem BioAssay AID1465 (SRMLSC, 2008)
Among all 220,000 compounds or so, about 160 (0.073%) were called active. This list was built around the results that the source calls inconclusive (neither active nor inactive); the mix of calls is not that of the screen.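 How the source made its calls: active means fold induction of absorbance versus untreated yeast above a set limit, then at least 30% activation at any dose in follow-up; inconclusive means repeats straddling the limit, or above it without dose testing; inactive means fold induction below the set limit.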

assay: enhancers of respiration in Yfh1-depleted yeast, dose response, Friedreich's ataxia, plus single-dose screen (AID 1465); details: S. cerevisiae Yfh1-off respiration, WST-1 reduction, 72 h; at 50 µM; stronger effect = higher value

| Compound | fold induction |
| --- | --- |
| COc1ccc(Cn2c(C)c(C)c(C#N)c2NC(=O)Nc2cccc(Cl)c2)cc1 | inconclusive: 1.36 |
| COc1ccc(/C=N/NC(=O)c2cc(C)n(-c3ccccc3)c2C)cc1OC | inactive: 0.99 |
| O=S(c1ccc2ccccc2c1)c1cnns1 (stereo not given) | inconclusive: 1.34 |
| NC(=S)Cc1nc(-c2ccccc2)cs1 | inconclusive: 1.33 |
| CN1CCN(C(=O)c2cc(C(C)(C)C)cc(C(C)(C)C)c2)CC1 | inactive: 1.02 |
| CCCOc1ccc(C(C)=O)cc1CSc1nc(O)cc(=O)[nH]1 | inconclusive: 1.12 |
| COc1ccc2c(c1)c(CCN1C(=O)c3ccccc3C1=O)cn2C(=O)c1ccco1 | inactive: 1.01 |
| CCOC(=O)N1CCN(c2ccc([N+](=O)[O-])cc2)CC1 | inconclusive: 1.33 |
| CCC(=O)N(CC)C1=C(O)c2ccccc2C(=O)C1=O | inconclusive: 1.34 |
| COc1cc(CNC(C)C)c(Br)cc1OC1CCCC1 | inactive: 1.02 |
| CCc1ccc(Nc2nnc(SCC(=O)Nc3cccc(S(=O)(=O)NC4=NCCCCC4)c3)s2)cc1 | inconclusive: 1.34 |
| Cc1ccc(C(NC(=O)C(C)C)c2cc([N+](=O)[O-])c3cccnc3c2O)cc1 (stereo not given) | inconclusive: 1.34 |
| O=C(CSc1ccccc1)Nc1ccc(C(=O)Nc2ccc(O)cc2)cc1 | inactive: 1.06 |
| O=C(N/N=C/c1cc([N+](=O)[O-])ccc1O)c1cc(-c2ccccc2)nc2ccccc12 | inactive: 1.16 |
| Cc1cccc(N=Cc2[nH]c3ccc(Br)c(Cl)c3c2O)c1 | inconclusive: 1.53 |
| O=C(Cc1cccc2ccccc12)Nc1ccc(-c2cc3ccccc3oc2=O)cc1 | inconclusive: 1.29 |
| Cc1cc2nc3c(=O)n(C4CCCCC4)c(=O)[nH]c3nc2cc1N | inconclusive: 1.53 |
| Cc1ccccc1NC1=C(C(=O)c2ccccc2)N(C)S(=O)(=O)c2ccccc21 | inconclusive: 1.14 |
| Cc1nc(-n2[nH]c3c(c2=O)CCCC3)[nH]c(=O)c1Cc1ccccc1 | inconclusive: 1.33 |
| COc1ccc(-[n+]2c(C)cc(/C=C3\Sc4ccccc4N3C)cc2C)cc1 | inconclusive: 1.85 |
| CCC(C(=O)O)N1C(=O)/C(=C/C(C)=C/c2ccccc2)SC1=S (stereo not given) | inactive: 1.22 |
| CCNC(=S)N/N=C/c1cccs1 | inconclusive: 1.16 |
| CCOC(=O)c1ccc(NC(=O)Nc2ccc(F)cc2)cc1 | inconclusive: 1.06 |
| COC(=O)c1ccccc1NC(=S)NC(=O)c1ccccc1 | inconclusive: 1.33 |
| COc1ccc(C2=NN(c3nc4ccccc4s3)C(=O)/C2=C\N(C)C)cc1 | inactive: 1.14 |
